# According to paper PMC9911399, “Two distinct binding modes provide the RNA-binding protein RbFox with extraordinary sequence specificity”:
# Changes are numbered by the printed parent chain; changes in the protein carry UniProt numbers. This is one part of the list.
# T1: RBFOX1 RRM RbFoxmut (Fox-RRM*) (Homo sapiens, UniProt Q9NWB1 109-208, R118D;E147R;N151S;E152T)
# T1 sequence: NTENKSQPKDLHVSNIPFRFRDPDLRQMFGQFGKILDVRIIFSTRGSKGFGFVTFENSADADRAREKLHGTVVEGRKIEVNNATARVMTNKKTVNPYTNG
# B1: CGUAUAU (DNA:RNA)
# RNA: GGGAGACCGGAAUUCAGAUUGUCCCGUAUAUUUAAAUCCCGUCGUAGCCACCA
# DNA 1: CAATCTGAATTCCGGTCTCCC
# DNA 2: TGGTGGCTACGACGGGATT
# B2: UCGUGCC (DNA:RNA)
# RNA: GGGAGACCGGAAUUCAGAUUGUCCUCGUGCCUUAAAUCCCGUCGUAGCCACCA
# DNA 1: CAATCTGAATTCCGGTCTCCC
# DNA 2: TGGTGGCTACGACGGGATT
# B3: CUGCCCG (DNA:RNA)
# RNA: B2 RNA with U25C, C26U, U28C, G29C, C31G
# DNA 1: CAATCTGAATTCCGGTCTCCC
# DNA 2: TGGTGGCTACGACGGGATT
# B4: AAUCGGC (DNA:RNA)
# RNA: B2 RNA with U25A, C26A, G27U, U28C, C30G
# DNA 1: CAATCTGAATTCCGGTCTCCC
# DNA 2: TGGTGGCTACGACGGGATT
# B5: CGCAUCC (DNA:RNA)
# RNA: B1 RNA with U27C, A30C, U31C
# DNA 1: CAATCTGAATTCCGGTCTCCC
# DNA 2: TGGTGGCTACGACGGGATT
# B6: UUACUAA (DNA:RNA)
# RNA: B1 RNA with C25U, G26U, U27A, A28C, U31A
# DNA 1: CAATCTGAATTCCGGTCTCCC
# DNA 2: TGGTGGCTACGACGGGATT
# B7: UCGACGU (DNA:RNA)
# RNA: B2 RNA with U28A, G29C, C30G, C31U
# DNA 1: CAATCTGAATTCCGGTCTCCC
# DNA 2: TGGTGGCTACGACGGGATT
# B8: GCAAACU (DNA:RNA)
# RNA: B1 RNA with C25G, G26C, U27A, U29A, A30C
# DNA 1: CAATCTGAATTCCGGTCTCCC
# DNA 2: TGGTGGCTACGACGGGATT
# B9: AGACGGC (DNA:RNA)
# RNA: B2 RNA with U25A, C26G, G27A, U28C, C30G
# DNA 1: CAATCTGAATTCCGGTCTCCC
# DNA 2: TGGTGGCTACGACGGGATT
# B10: UCGAAUU (DNA:RNA)
# RNA: B2 RNA with U28A, G29A, C30U, C31U
# DNA 1: CAATCTGAATTCCGGTCTCCC
# DNA 2: TGGTGGCTACGACGGGATT
# B11: GACGCGG (DNA:RNA)
# RNA: GGGAGACCGGAAUUCAGAUUGUCCGACGCGGUUAAAUCCCGUCGUAGCCACCA
# DNA 1: CAATCTGAATTCCGGTCTCCC
# DNA 2: TGGTGGCTACGACGGGATT
# B12: UACUCCC (DNA:RNA)
# RNA: B2 RNA with C26A, G27C, G29C
# DNA 1: CAATCTGAATTCCGGTCTCCC
# DNA 2: TGGTGGCTACGACGGGATT
# B13: CCAUCGC (DNA:RNA)
# RNA: B2 RNA with U25C, G27A, G29C, C30G
# DNA 1: CAATCTGAATTCCGGTCTCCC
# DNA 2: TGGTGGCTACGACGGGATT
# B14: AAGUCGC (DNA:RNA)
# RNA: B11 RNA with G25A, C27G, G28U, G31C
# DNA 1: CAATCTGAATTCCGGTCTCCC
# DNA 2: TGGTGGCTACGACGGGATT
# B15: GCCCUGA (DNA:RNA)
# RNA: B11 RNA with A26C, G28C, C29U, G31A
# DNA 1: CAATCTGAATTCCGGTCTCCC
# DNA 2: TGGTGGCTACGACGGGATT
# B16: CGCUCGC (DNA:RNA)
# RNA: B11 RNA with G25C, A26G, G28U, G31C
# DNA 1: CAATCTGAATTCCGGTCTCCC
# DNA 2: TGGTGGCTACGACGGGATT
# B17: UCUUUAU (DNA:RNA)
# RNA: B1 RNA with C25U, G26C, A28U
# DNA 1: CAATCTGAATTCCGGTCTCCC
# DNA 2: TGGTGGCTACGACGGGATT
# B18: GUCCAUG (DNA:RNA)
# RNA: B11 RNA with A26U, G28C, C29A, G30U
# DNA 1: CAATCTGAATTCCGGTCTCCC
# DNA 2: TGGTGGCTACGACGGGATT
# B19: UGGCCGA (DNA:RNA)
# RNA: B11 RNA with G25U, A26G, C27G, G28C, G31A
# DNA 1: CAATCTGAATTCCGGTCTCCC
# DNA 2: TGGTGGCTACGACGGGATT
# B20: CAGUGAA (DNA:RNA)
# RNA: B2 RNA with U25C, C26A, C30A, C31A
# DNA 1: CAATCTGAATTCCGGTCTCCC
# DNA 2: TGGTGGCTACGACGGGATT
# B21: GACUGAU (DNA:RNA)
# RNA: B11 RNA with G28U, C29G, G30A, G31U
# DNA 1: CAATCTGAATTCCGGTCTCCC
# DNA 2: TGGTGGCTACGACGGGATT
# B22: UAUAUGC (DNA:RNA)
# RNA: B1 RNA with C25U, G26A, A30G, U31C
# DNA 1: CAATCTGAATTCCGGTCTCCC
# DNA 2: TGGTGGCTACGACGGGATT
# B23: ACACGUU (DNA:RNA)
# RNA: B2 RNA with U25A, G27A, U28C, C30U, C31U
# DNA 1: CAATCTGAATTCCGGTCTCCC
# DNA 2: TGGTGGCTACGACGGGATT
# B24: GACUUGG (DNA:RNA)
# RNA: B11 RNA with G28U, C29U
# DNA 1: CAATCTGAATTCCGGTCTCCC
# DNA 2: TGGTGGCTACGACGGGATT
# B25: CUCUCCC (DNA:RNA)
# RNA: B2 RNA with U25C, C26U, G27C, G29C
# DNA 1: CAATCTGAATTCCGGTCTCCC
# DNA 2: TGGTGGCTACGACGGGATT
# B26: GGUACGA (DNA:RNA)
# RNA: B1 RNA with C25G, U29C, A30G, U31A
# DNA 1: CAATCTGAATTCCGGTCTCCC
# DNA 2: TGGTGGCTACGACGGGATT
# B27: CCGCGUU (DNA:RNA)
# RNA: B2 RNA with U25C, U28C, C30U, C31U
# DNA 1: CAATCTGAATTCCGGTCTCCC
# DNA 2: TGGTGGCTACGACGGGATT
# B28: CCUAGGC (DNA:RNA)
# RNA: B1 RNA with G26C, U29G, A30G, U31C
# DNA 1: CAATCTGAATTCCGGTCTCCC
# DNA 2: TGGTGGCTACGACGGGATT
# B29: UAGCGCU (DNA:RNA)
# RNA: B2 RNA with C26A, U28C, C31U
# DNA 1: CAATCTGAATTCCGGTCTCCC
# DNA 2: TGGTGGCTACGACGGGATT
# B30: AGUUCAG (DNA:RNA)
# RNA: B1 RNA with C25A, A28U, U29C, U31G
# DNA 1: CAATCTGAATTCCGGTCTCCC
# DNA 2: TGGTGGCTACGACGGGATT
# B31: CAAACUU (DNA:RNA)
# RNA: B1 RNA with G26A, U27A, U29C, A30U
# DNA 1: CAATCTGAATTCCGGTCTCCC
# DNA 2: TGGTGGCTACGACGGGATT
# Molecular target: T1, RBFOX1 RRM RbFoxmut (Fox-RRM*)
# Assay: EMSA; HiTS-Eq, 1 nM pool, 10 min; buffer printed only for the single-RNA assays: 10 mM Tris pH 7.5, 150 mM NaCl, 3.4 mM EDTA, 0.001% NP-40, 30 C
# Conditions: tags: His6 N-terminal (pET28a); label: 5' 32P
# Procedure, shortened: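 Purified RbFox RRM, wild type or mutant, was incubated for 10 min in 50 µL with 1 nM of a 5′-radiolabelled RNA pool carrying 7 randomized nucleotides, whose flanks were annealed to DNA oligonucleotides, over a series of increasing protein concentrations. Unbound RNA was resolved on 8% native PAGE, cut out, reverse-transcribed, barcoded by PCR and sequenced on an Illumina HiSeq 2500. Relative association constants were derived from changes in read counts for each RNA species versus the control reaction and normalised to the cognate motif.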
row,Binder,binding signal
1,B1,0.12 KA relative to UGCAUGU
2,B2,0.313 KA relative to UGCAUGU
3,B3,0.102 KA relative to UGCAUGU
4,B4,0.0881 KA relative to UGCAUGU
5,B5,0.337 KA relative to UGCAUGU
6,B6,0.102 KA relative to UGCAUGU
7,B7,0.0739 KA relative to UGCAUGU
8,B8,0.0551 KA relative to UGCAUGU
9,B9,0.1 KA relative to UGCAUGU
10,B10,0.0823 KA relative to UGCAUGU
11,B11,0.0687 KA relative to UGCAUGU
12,B12,0.0784 KA relative to UGCAUGU
13,B13,0.0629 KA relative to UGCAUGU
14,B14,0.0916 KA relative to UGCAUGU
15,B15,0.0714 KA relative to UGCAUGU
16,B16,0.0954 KA relative to UGCAUGU

row,Binder,binding signal
1,B17,0.094 KA relative to UGCAUGU
2,B18,0.151 KA relative to UGCAUGU
3,B19,0.135 KA relative to UGCAUGU
4,B20,0.106 KA relative to UGCAUGU
5,B21,0.171 KA relative to UGCAUGU
6,B22,0.106 KA relative to UGCAUGU
7,B23,0.0981 KA relative to UGCAUGU
8,B24,0.129 KA relative to UGCAUGU
9,B25,0.0711 KA relative to UGCAUGU
10,B26,0.165 KA relative to UGCAUGU
11,B27,0.0775 KA relative to UGCAUGU
12,B28,0.0915 KA relative to UGCAUGU
13,B29,0.0847 KA relative to UGCAUGU
14,B30,0.0995 KA relative to UGCAUGU
15,B31,0.075 KA relative to UGCAUGU
